According to the supplement of paper PMC4967469:
IC50 is the fitted dose that halves viability relative to control wells, and lower means more sensitive; where the fit passes the top or lowest dose, that dose stands as a limit. The AUC spans the tested range (256-fold, ending at the top dose) of the same fit; values near 1 show little effect. Any top dose called inferred was derived from the fitted curves, not read from the paper.

Tests used:
Experiment in all cases: Viability of human cancer cell lines after 72 h of drug (GDSC screen)
CH5424802 = compound: CCc1cc2c(cc1N1CCC(N3CCOCC3)CC1)C(C)(C)c1[nH]c3cc(C#N)ccc3c1C2=O [CH5424802]; details: top dose 5.12 µM; top dose inferred
Protocol: (§1)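 Human cancer cell lines in 384-well plates, medium with 10% serum, drug for 72 h over a 256-fold dose range (nine 2-fold or five 4-fold steps up to the top dose). Adherent lines were fixed and stained with the nucleic acid dye Syto60, suspension lines read with resazurin; signal relative to control wells, capped at 0 and 100%. One two-parameter sigmoid per drug and line, fitted in a mixed model over all curves with the slope shared within a line.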

ACHP (KIN001-260) = compound: N#Cc1c(C2CCNCC2)cc(-c2c(O)cccc2OCC2CC2)nc1N [ACHP (KIN001-260)]; details: top dose 20 µM; top dose inferred
Protocol: as §1

CAY10603 = compound: CC(C)(C)OC(=O)Nc1ccc(-c2cc(C(=O)NCCCCCCC(=O)NO)no2)cc1 [CAY10603]; details: top dose 20 µM; top dose inferred
Protocol: as §1

Cell Line	AUC (CH5424802)	IC50 (CH5424802)	AUC (ACHP (KIN001-260))	IC50 (ACHP (KIN001-260))	AUC (CAY10603)	IC50 (CAY10603)
NB12 (neuroblastoma, adherent)	0.864	> 5.12 µM	0.979	> 20 µM	0.238	0.164 µM
Calu-6 (lung adenocarcinoma, adherent)	0.974	> 5.12 µM	0.948	> 20 µM	0.54	1.63 µM
BB49-HNC (head and neck, adherent)	0.976	> 5.12 µM	0.965	> 20 µM	0.812	16.7 µM
L-363 (myeloma, suspension)	0.983	> 5.12 µM	0.929	> 20 µM	0.439	0.873 µM
KS-1 (glioma, adherent)	0.962	> 5.12 µM	0.931	> 20 µM	0.595	2.42 µM
WSU-NHL (lymphoid neoplasm, suspension)	0.989	> 5.12 µM	0.916	> 20 µM	0.524	1.44 µM
KYSE-510 (oesophagus, adherent)	0.992	> 5.12 µM	0.992	> 20 µM	0.735	5.08 µM
HT-3 (cervix, adherent)	0.985	> 5.12 µM	0.975	> 20 µM	0.701	4.64 µM
CPC-N (small cell lung carcinoma, suspension)	0.968	> 5.12 µM	0.949	> 20 µM	0.406	0.675 µM
OSC-19 (head and neck, adherent)	0.977	> 5.12 µM	0.969	> 20 µM	0.491	1.18 µM
SW962 (urogenital system, adherent)	0.977	> 5.12 µM	0.951	> 20 µM	0.576	2.13 µM
KYSE-520 (oesophagus, adherent)	0.862	> 5.12 µM	0.972	> 20 µM	0.815	16.2 µM
COLO-320-HSR (large intestine, suspension)	0.991	> 5.12 µM	0.926	> 20 µM	0.515	1.36 µM
MEG-01 (chronic myeloid leukaemia, suspension)	0.956	> 5.12 µM	0.886	19.9 µM	0.524	1.45 µM
ME-1 (acute myeloid leukaemia, suspension)	0.989	> 5.12 µM	0.975	> 20 µM	0.45	0.903 µM
PC-3 (prostate, adherent)	0.977	> 5.12 µM	0.956	> 20 µM	0.526	1.49 µM
REH (B-cell leukaemia, suspension)	0.769	1.85 µM	0.889	> 20 µM	0.254	0.255 µM
MS751 (cervix, adherent)	0.988	> 5.12 µM	0.989	> 20 µM	0.813	9.76 µM
LC-2-ad (lung adenocarcinoma, adherent)	0.943	> 5.12 µM	0.941	> 20 µM	0.365	0.526 µM

Cell Line	AUC (CH5424802)	IC50 (CH5424802)	AUC (ACHP (KIN001-260))	IC50 (ACHP (KIN001-260))	AUC (CAY10603)	IC50 (CAY10603)
HCC-827 (lung adenocarcinoma, adherent)	0.966	> 5.12 µM	0.982	> 20 µM	0.654	3.59 µM
SK-UT-1 (soft tissue, adherent)	0.989	> 5.12 µM	0.989	> 20 µM	0.788	7.91 µM
EGI-1 (biliary tract, adherent)	0.978	> 5.12 µM	0.961	> 20 µM	0.805	13.9 µM
ACHN (kidney, adherent)	0.972	> 5.12 µM	0.968	> 20 µM	0.627	2.94 µM
NCI-H211 (small cell lung carcinoma, adherent)	0.97	> 5.12 µM	0.781	8.04 µM	0.302	0.354 µM
SAT (head and neck, adherent)	0.965	> 5.12 µM	0.965	> 20 µM	0.611	2.99 µM
P31-FUJ (acute myeloid leukaemia, suspension)	0.996	> 5.12 µM	0.994	> 20 µM	0.634	2.66 µM
CCRF-CEM (lymphoblastic leukaemia, suspension)	0.987	> 5.12 µM	0.895	17.5 µM	0.192	0.185 µM
SISO (cervix, adherent)	0.983	> 5.12 µM	0.988	> 20 µM	0.78	7.88 µM
CAL-120 (breast, adherent)	0.979	> 5.12 µM	0.963	> 20 µM	0.516	1.4 µM
JVM-2 (lymphoid neoplasm, suspension)	0.975	> 5.12 µM	0.939	> 20 µM	0.728	6.56 µM
HCC1500 (breast, adherent)	0.972	> 5.12 µM	0.949	> 20 µM	0.627	2.84 µM
HAL-01 (lymphoblastic leukaemia, suspension)	0.763	1.64 µM	0.889	18.2 µM	0.333	0.456 µM
COLO-792 (melanoma, adherent)	0.981	> 5.12 µM	0.987	> 20 µM	0.875	19.1 µM
JVM-3 (lymphoid neoplasm, suspension)	0.984	> 5.12 µM	0.932	> 20 µM	0.438	0.842 µM
NCI-H2135 (non-small cell lung carcinoma, adherent)	0.985	> 5.12 µM	0.924	> 20 µM	0.436	0.843 µM
GCIY (stomach, adherent)	0.984	> 5.12 µM	0.981	> 20 µM	0.341	0.426 µM
COR-L105 (lung adenocarcinoma, adherent)	0.765	2.29 µM	0.883	> 20 µM	0.449	0.881 µM
NCI-H187 (small cell lung carcinoma, suspension)	0.981	> 5.12 µM	0.951	> 20 µM	0.442	0.855 µM

Cell Line	AUC (CH5424802)	IC50 (CH5424802)	AUC (ACHP (KIN001-260))	IC50 (ACHP (KIN001-260))	AUC (CAY10603)	IC50 (CAY10603)
COLO-205 (large intestine, suspension)	0.984	> 5.12 µM	0.974	> 20 µM	0.534	1.54 µM
SNU-475 (liver, adherent)	0.991	> 5.12 µM	0.963	> 20 µM	0.56	1.78 µM
COLO-824 (breast, adherent)	0.988	> 5.12 µM	0.938	> 20 µM	0.613	2.57 µM
ARH-77 (myeloma, suspension)	0.984	> 5.12 µM	0.846	13.9 µM	0.35	0.489 µM
EB-3 (Burkitt lymphoma, suspension)	0.958	> 5.12 µM	0.829	15.4 µM	0.488	1.15 µM
WM793B (melanoma, adherent)	0.979	> 5.12 µM	0.96	> 20 µM	0.693	4.64 µM
NCI-H2030 (lung adenocarcinoma, adherent)	0.929	> 5.12 µM	0.909	> 20 µM	0.607	2.57 µM
NCI-H1299 (large cell lung carcinoma, adherent)	0.971	> 5.12 µM	0.957	> 20 µM	0.802	12.5 µM
NCI-H2023 (lung adenocarcinoma, adherent)	0.979	> 5.12 µM	0.974	> 20 µM	0.809	13.7 µM
KARPAS-620 (haematopoietic neoplasm, suspension)	0.989	> 5.12 µM	0.877	15.3 µM	0.204	0.198 µM
Hs746T (stomach, adherent)	0.979	> 5.12 µM	0.919	> 20 µM	0.397	0.59 µM
EFM-19 (breast, adherent)	0.954	> 5.12 µM	0.911	> 20 µM	0.513	1.38 µM
T47D (breast, adherent)	0.932	> 5.12 µM	0.953	> 20 µM	0.522	1.48 µM
HuO-3N1 (osteosarcoma, adherent)	0.977	> 5.12 µM	0.98	> 20 µM	0.776	10.6 µM
NCI-H1435 (lung adenocarcinoma, semi-adherent)	0.993	> 5.12 µM	0.985	> 20 µM	0.71	4.52 µM
DK-MG (glioma, adherent)	0.948	> 5.12 µM	0.946	> 20 µM	0.697	5.91 µM
769-P (kidney, adherent)	0.981	> 5.12 µM	0.953	> 20 µM	0.444	0.866 µM
ME-180 (cervix, adherent)	0.977	> 5.12 µM	0.971	> 20 µM	0.568	1.93 µM
MEL-JUSO (melanoma, adherent)	0.959	> 5.12 µM	0.943	> 20 µM	0.449	0.893 µM
